Assay results published in US4336400A, “3-(Hydroxy or hydroxymethyl)-4-hydroxy-alpha(aminomethyl)benzyl alcohols and methods of use” (Sterling Drug Inc., priority 1978, dated 1982).
“And” between values parts separate entries of the source, which are not always exact repeats. Identical values can stand only once. Counter-ions that a name gives are not always drawn. At least one read-out could not be matched to a standard name with certainty.

Tests used:
Assay type in all cases: in vivo
[1] = tested on: carbachol or histamine bronchoconstriction; assay: Test Method I: bronchodilator activity, intratracheal (aerosol application), anesthetized dog; settings: No. of actuations (dose in γ/act.) printed in the line
[2] = tested on: carbachol or histamine bronchoconstriction; assay: Test Method I: bronchodilator activity, intravenous, anesthetized dog; settings: i.v., dose (mcg/kg) printed in the line
[3] = tested on: carbachol or histamine bronchoconstriction; assay: Test Method I: bronchodilator activity, intraduodenal, anesthetized dog; settings: dose (salt) mcg/kg
[4] = 2 min. after medication, hydrochloride
[5] = 60 minutes after medication, * mean of 3 dogs
[6] = 120 minutes after medication, * mean of 3 dogs
[7] = 240 minutes after medication, * mean of 3 dogs

For `CCCC(=O)Oc1ccc(C(O)CNC(C)(C)C)cc1OC(=O)CCC.Cl` (stereo not drawn) [Example 1, 3,4-bis(butyryloxy)-alpha-(tert-butylaminomethyl)-benzyl alcohol hydrochloride], the “Intratracheal Activity (Aerosol Application), bronchodilation” value (“Intratracheal Activity” for short) ([1]; 1-2 min.) was 68-90.
For `CC(C)CC(=O)Oc1ccc(C(O)CNC(C)(C)C)cc1OC(=O)CC(C)C.Cl` (stereo not drawn) [Example 3, 3,4-bis(isovaleryloxy)-alpha-(tert-butylaminomethyl)benzyl alcohol hydrochloride], the “Intratracheal Activity” value ([1]; 1-2 min.) was 60-100.
In the case of `CCC(C)C(=O)Oc1ccc(C(O)CNC(C)(C)C)cc1OC(=O)C(C)CC.Cl` (stereo not drawn) [Example 4, 3,4-bis(2-methylbutanoyloxy)-alpha-(tert-butylaminomethyl)benzyl alcohol hydrochloride], the “Intravenous Activity, Bronchodilatation in Percent” value (“Intravenous Activity … in Percent” for short) ([2]; 2 min. after medication) is reported as 48%, the “Intravenous Activity … in Percent” value ([2]; 30 minutes after medication) is reported as 5% and the “Intravenous Activity … in Percent” value ([2]; 60 minutes after medication) is reported as 0%.
`CC(C)(C)CC(=O)Oc1ccc(C(O)CNC(C)(C)C)cc1OC(=O)CC(C)(C)C.Cl` (stereo not drawn) [Example 7, 3,4-bis(3,3-dimethylbutanoyloxy)-alpha-(tert-butylaminomethyl)benzyl alcohol hydrochloride] was tested, and the “Intravenous Activity … in Percent” value ([2]; 240 minutes after medication, hydrochloride) was 23% and 44%.
With `CC(C)(C)NCC(O)c1ccc(OC(=O)C2(C)CC2)c(OC(=O)C2(C)CC2)c1.Cl` (stereo not drawn) [Example 13, 3,4-bis(1-methylcyclopropanecarbonyloxy)-alpha-(tert-butylaminomethyl)benzyl alcohol hydrochloride] the “Intravenous Activity … in Percent” value [2, 4] was 52% and 69% and the “Intravenous Activity … in Percent” value ([2]; 30 minutes after medication, hydrochloride) was 48% and 34%.
In the case of `CC(C)(C)NCC(O)c1ccc(OC(=O)C2CCCCC2)c(OC(=O)C2CCCCC2)c1.Cl` (stereo not drawn) [Example 15, 3,4-bis(cyclohexanecarbonyloxy)-alpha-(tert-butylaminomethyl)benzyl alcohol hydrochloride], the “Intravenous Activity … in Percent” value [2, 4] is reported as 20% and 36%, the “Intravenous Activity … in Percent” value ([2]; 30 minutes after medication) is reported as 27% and the “Intravenous Activity … in Percent” value ([2]; 180 minutes after medication) is reported as 20%.
With `Cc1ccccc1C(=O)Oc1ccc(C(O)CNC(C)(C)C)cc1OC(=O)c1ccccc1C` (stereo not drawn) [Example 111, 3,4-bis(o-toluyloxy)-alpha-(tert-butylaminomethyl)benzyl alcohol methanesulfonate] the “Intravenous Activity … in Percent” value ([2]; 180 minutes after medication) was 48% and 35% and 38% and 50% and the “Intravenous Activity … in Percent” value ([2]; 300 minutes after medication) was 50% and 25%.
In the case of `Cc1cc(C)cc(C(=O)Oc2ccc(C(O)CNC(C)(C)C)cc2OC(=O)c2cc(C)cc(C)c2)c1` (stereo not drawn) [Example 116, 3,4-bis(3,5-dimethylbenzoyloxy)-alpha-(tert-butylaminomethyl)benzyl alcohol methanesulfonate], the “Intratracheal Activity” value ([1]; (H), 60 minutes) is reported as 27 and 40, the “Intratracheal Activity” value ([1]; (H), 120 minutes) is reported as 20 and 29 and the “Intratracheal Activity” value ([1]; (H), 240 minutes) is reported as 0.
`CNCC(O)c1ccc(OC(=O)c2ccc(C)cc2)c(OC(=O)c2ccc(C)cc2)c1` (stereo not drawn) [Example 126, 3,4-bis(p-toluyloxy)-alpha-(methylaminomethyl)-benzyl alcohol methanesulfonate] was tested, and the “Intravenous Activity … in Percent” value ([2]; 60 minutes after medication) was 15% and 17% and 20%.
For `Cc1ccc(C(=O)Oc2ccc(C(O)CN)cc2OC(=O)c2ccc(C)cc2)cc1` (stereo not drawn) [Example 127, 3,4-bis(p-toluyloxy)-alpha-(aminomethyl)benzyl alcohol methanesulfonate], the “Intraduodenal Activity, Bronchodilation in Percent” value (“Intraduodenal Activity … in Percent” below) ([3]; 5 minutes after medication) was 16% and the “Intraduodenal Activity … in Percent” value [3, 5] was 0%.
`CCC(NC(C)C)C(O)c1ccc(OC(=O)c2ccc(C)cc2)c(OC(=O)c2ccc(C)cc2)c1` (stereo not drawn) [Example 132, 3,4-bis(p-toluyloxy)-alpha-[1-(isopropylamino)-propyl]benzyl alcohol hydrochloride] was tested, and the “Intravenous Activity … in Percent” value ([2]; 300 minutes after medication) was 0%.
In the case of `CC(C)(C)NCC(O)c1ccc(OC(=O)C(C)(C)C)c(COC(=O)C(C)(C)C)c1` (stereo not drawn) [Example 135, 3-(pivalyloxymethyl)-4-(pivalyloxy)-alpha-(tert-butylaminomethyl)benzyl alcohol methanesulfonate], the “Intraduodenal Activity … in Percent” value ([3]; 5 minutes after medication) is reported as 18% and 31%, the “Intraduodenal Activity … in Percent” value ([3]; 30 minutes after medication) is reported as 56% and the “Intraduodenal Activity … in Percent” value [3, 5] is reported as 56% and 74%. For the same compound, the “Intraduodenal Activity … in Percent” value [3, 6] was 55% and 73%, the “Intraduodenal Activity … in Percent” value ([3]; 180 minutes after medication) was 45% and 64% and the “Intraduodenal Activity … in Percent” value [3, 7] was 34% and 51%. The “Intraduodenal Activity … in Percent” value ([3]; 300 minutes after medication) was 2% and 3%, the “Intravenous Activity … in Percent” value ([2]; 30 minutes after medication) was 32% and 49% and 64% and the “Intravenous Activity … in Percent” value ([2]; 60 minutes after medication) was 36% and 50% and 62%. The “Intravenous Activity … in Percent” value ([2]; 180 minutes after medication) was 50% and 62%, the “Intravenous Activity … in Percent” value ([2]; 240 minutes after medication) was 45% and 56% and the “Intravenous Activity … in Percent” value ([2]; 300 minutes after medication) was 36% and 49%.
For `CC(C)CC(=O)OCc1cc(C(O)CNC(C)(C)C)ccc1OC(=O)CC(C)C` (stereo not drawn) [Example 136, 3-(isovaleryloxymethyl)-4-(isovaleryloxy)-alpha-(tert-butylaminomethyl)benzyl alcohol methanesulfonate], the “Intravenous Activity … in Percent” value ([2]; 60 minutes after medication) was 47% and 63% and 57% and 70%.
`CCC(NC1CCCC1)C(O)c1ccc(OC(=O)CC(C)C)c(OC(=O)CC(C)C)c1.Cl` (stereo not drawn) [Example 138, 3,4-bis(isovaleryloxy)-alpha-[1-(cyclopentylamino)propyl]benzyl alcohol hydrochloride] was tested, and the “Intravenous Activity … in Percent” value ([2]; 5 minutes after medication, hydrochloride) was 38% and 49%, the “Intravenous Activity … in Percent” value ([2]; 60 minutes after medication) was 42% and the “Intravenous Activity … in Percent” value ([2]; 120 minutes after medication) was 46%.
With `CC(=O)Oc1ccc(C(O)CNC(C)(C)C)cc1OC(=O)c1ccc(C)cc1` (stereo not drawn) [Example 146, 3-(p-toluyloxy)-4-acetoxy-alpha-(tert-butylaminomethyl)benzyl alcohol methanesulfonate] the “Intraduodenal Activity … in Percent” value ([3]; 5 minutes after medication) was 60%, the “Intraduodenal Activity … in Percent” value ([3]; 30 minutes after medication) was 39% and the “Intraduodenal Activity … in Percent” value [3, 5] was 39%. For the same compound, the “Intraduodenal Activity … in Percent” value [3, 6] was 26%, the “Intraduodenal Activity … in Percent” value ([3]; 180 minutes after medication) was 33% and the “Intraduodenal Activity … in Percent” value [3, 7] was 24%. For the same compound, the “Intraduodenal Activity … in Percent” value ([3]; 300 minutes after medication) was 13%, the “Intravenous Activity … in Percent” value ([2]; 30 minutes after medication) was 38% and 57% and the “Intravenous Activity … in Percent” value ([2]; 60 minutes after medication) was 44% and 63%. For the same compound, the “Intravenous Activity … in Percent” value ([2]; 180 minutes after medication) was 20% and the “Intravenous Activity … in Percent” value ([2]; 240 minutes after medication) was 20%.
`CC(=O)Oc1ccc(C(O)CNC(C)(C)C)cc1OC(=O)C12CC3CC(CC(C3)C1)C2` (stereo not drawn) [Example 148, 3-(1-adamantanecarbonyloxy)-4-acetoxy-alpha-(tert-butylaminomethyl)benzyl alcohol methanesulfonate] was tested, and the “Intravenous Activity … in Percent” value ([2]; 240 minutes after medication) was 14%.
For `CC(=O)OCc1cc(C(O)CNC(C)(C)C)ccc1OC(=O)C12CC3CC(CC(C3)C1)C2` (stereo not drawn) [Example 152, 3-(acetoxymethyl)-4-(1-adamantanecarbonyloxy)-alpha-(tert-butylaminomethyl)benzyl alcohol methanesulfonate], the “Intraduodenal Activity … in Percent” value ([3]; 5 minutes after medication) was 6%, the “Intraduodenal Activity … in Percent” value [3, 6] was 48% and 51% and the “Intraduodenal Activity … in Percent” value ([3]; 180 minutes after medication) was 45% and 65%. The “Intraduodenal Activity … in Percent” value [3, 7] was 45% and 59% and the “Intravenous Activity … in Percent” value ([2]; 60 minutes after medication) was 50% and 75% and 93%.
With `CCC(NC(C)(C)C)C(O)c1ccc(OC(=O)c2ccccc2)c(OC(=O)c2ccccc2)c1` (stereo not drawn) [Example 156, 3,4-bis(benzoyloxy)-alpha-[1-(tert-butylamino)-propyl]benzyl alcohol methanesulfonate] the “Intraduodenal Activity … in Percent” value ([3]; 5 minutes after medication) was 18% and 30%, the “Intraduodenal Activity … in Percent” value [3, 7] was 21% and the “Intraduodenal Activity … in Percent” value ([3]; 300 minutes after medication) was 19% and 12%. The “Intravenous Activity … in Percent” value ([2]; 5 minutes after medication) was 57% and 67% and 76%.
In the case of `Cc1ccc(C(=O)Oc2ccc(C(CNC(C)(C)C)OC(=O)c3ccc(C)cc3)cc2OC(=O)c2ccc(C)cc2)cc1` (stereo not drawn) [Example 157, 3,4-bis(p-toluyloxy)-alpha-(tert-butylaminomethyl)-benzyl p-toluate methanesulfonate], the “Intraduodenal Activity … in Percent” value ([3]; 180 minutes after medication) is reported as 0%, the “Intraduodenal Activity … in Percent” value [3, 7] is reported as 36% and the “Intraduodenal Activity … in Percent” value ([3]; 300 minutes after medication) is reported as 35%. The “Intravenous Activity … in Percent” value ([2]; 30 minutes after medication, methanesulfonate) was 33% and 40% and 24%, the “Intravenous Activity … in Percent” value ([2]; 60 minutes after medication, methanesulfonate) was 44% and 38% and 47% and the “Intravenous Activity … in Percent” value ([2]; 120 minutes after medication, methanesulfonate) was 41% and 38%. For the same compound, the “Intravenous Activity … in Percent” value ([2]; 180 minutes after medication, methanesulfonate) was 34% and 35% and 25%, the “Intravenous Activity … in Percent” value ([2]; 240 minutes after medication) was 31% and the “Intravenous Activity … in Percent” value ([2]; 300 minutes after medication, methanesulfonate) was 35% and 27%.
With `CCC(NC(C)C)C(O)c1ccc(O)c(O)c1` (stereo not drawn) [IV, 3,4-Dihydroxy-alpha-[1-(isopropylamino)propyl]-benzyl alcohol, reference compound] the “Intravenous Activity … in Percent” value ([2]; 60 minutes after medication) was 19% and 13%.
In the case of `CC(C)(C)NCC(O)c1ccc(O)c(CO)c1` (stereo not drawn) [Ref. Cpd. III, 3-Hydroxymethyl-4-hydroxy-alpha-(tert-butylaminomethyl)benzyl alcohol, reference compound], the “Intraduodenal Activity … in Percent” value ([3]; 30 minutes after medication) is reported as 42%, the “Intraduodenal Activity … in Percent” value [3, 5] is reported as 51% and 56% and the “Intraduodenal Activity … in Percent” value [3, 6] is reported as 43% and 71%. For the same compound, the “Intraduodenal Activity … in Percent” value [3, 7] was 34%, the “Intraduodenal Activity … in Percent” value ([3]; 300 minutes after medication) was 6% and the “Intravenous Activity … in Percent” value ([2]; 120 minutes after medication) was 0%.
